The other results are listed elsewhere or left out.
How the values were obtained:
Test in all cases: glycan array binding signal (z-score within array); higher = stronger binding
Conditions in all cases: glycan notation: IUPAC condensed, linker removed
[1] = biological target: GalNAc(a1-3)GalNAc(b1-3)Gal(a1-4)Gal(b1-4)GlcNAc
Procedure, shortened: (§1)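 Glycan array data came from 3228 arrays in the Consortium for Functional Glycomics database, and only arrays with an available protein sequence were kept. Glycan names were put into IUPAC-condensed notation, and columns mapping to the same glycan were averaged. The binding signal is a within-array Z-score, averaged across arrays of one protein sequence run at different concentrations or buffers and across linkers. A negative Z-score can be read as non-binding.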

GalNAc(b1-3)Gal = biological target: GalNAc(b1-3)Gal
Procedure, shortened: as §1

[2] = biological target: GalNAc(b1-3)Gal(a1-4)Gal(b1-4)GlcNAc
Procedure, shortened: as §1

[3] = biological target: GalNAc(b1-3)Gal(a1-4)Gal(b1-4)GlcNAc(b1-3)Gal(b1-4)Glc
Procedure, shortened: as §1

[4] = biological target: GalNAc(b1-3)Gal(a1-6)Gal(b1-4)Glc
Procedure, shortened: as §1

GalNAc(b1-3)GalNAc = biological target: GalNAc(b1-3)GalNAc
Procedure, shortened: as §1

GalNAc(b1-4)Gal(b1-4)Glc = biological target: GalNAc(b1-4)Gal(b1-4)Glc
Procedure, shortened: as §1

GalNAc(b1-4)GlcNAc = biological target: GalNAc(b1-4)GlcNAc
Procedure, shortened: as §1

[5] = biological target: GalNAc(b1-4)GlcNAc(b1-2)Man(a1-3)[GalNAc(b1-4)GlcNAc(b1-2)Man(a1-6)]Man(b1-4)GlcNAc(b1-4)GlcNAc
Procedure, shortened: as §1

GalNAc(b1-4)GlcNAc6S = biological target: GalNAc(b1-4)GlcNAc6S
Procedure, shortened: as §1

GalNAc(b1-6)GalNAc = biological target: GalNAc(b1-6)GalNAc
Procedure, shortened: as §1

GalNAc3S(b1-4)GlcNAc = biological target: GalNAc3S(b1-4)GlcNAc
Procedure, shortened: as §1

GalNAc3S(b1-4)GlcNAc3S = biological target: GalNAc3S(b1-4)GlcNAc3S
Procedure, shortened: as §1

GalNAc4S6S(b1-4)GlcNAc = biological target: GalNAc4S6S(b1-4)GlcNAc
Procedure, shortened: as §1

GalNAc6S(b1-4)GlcNAc = biological target: GalNAc6S(b1-4)GlcNAc
Procedure, shortened: as §1

Glc(a1-4)Glc = biological target: Glc(a1-4)Glc
Procedure, shortened: as §1

[6] = biological target: Glc(a1-4)Glc(a1-4)Glc(a1-4)Glc
Procedure, shortened: as §1

Glc(a1-6)Glc(a1-6)Glc = biological target: Glc(a1-6)Glc(a1-6)Glc
Procedure, shortened: as §1

[7] = biological target: Glc(a1-6)Glc(a1-6)Glc(a1-6)Glc
Procedure, shortened: as §1

Glc(b1-4)Glc = biological target: Glc(b1-4)Glc
Procedure, shortened: as §1

Glc(b1-6)Glc = biological target: Glc(b1-6)Glc
Procedure, shortened: as §1

GlcA(b1-3)Gal = biological target: GlcA(b1-3)Gal
Procedure, shortened: as §1

GlcA(b1-3)GlcNAc = biological target: GlcA(b1-3)GlcNAc
Procedure, shortened: as §1

GlcA(b1-6)Gal = biological target: GlcA(b1-6)Gal
Procedure, shortened: as §1

[8] = biological target: GlcNAc(a1-3)Gal(b1-4)GlcNAc
Procedure, shortened: as §1

[9] = biological target: GlcNAc(a1-4)Gal(b1-3)GlcNAc
Procedure, shortened: as §1

[10] = biological target: GlcNAc(a1-4)Gal(b1-4)GalNAc
Procedure, shortened: as §1

[11] = biological target: GlcNAc(a1-4)Gal(b1-4)GlcNAc
Procedure, shortened: as §1

[12] = biological target: GlcNAc(a1-4)Gal(b1-4)GlcNAc(b1-3)Gal(b1-4)Glc
Procedure, shortened: as §1

[13] = biological target: GlcNAc(a1-4)Gal(b1-4)GlcNAc(b1-3)Gal(b1-4)GlcNAc
Procedure, shortened: as §1

[14] = biological target: GlcNAc(a1-4)Gal(b1-4)GlcNAc(b1-3)Gal(b1-4)GlcNAc(b1-3)Gal(b1-4)GlcNAc
Procedure, shortened: as §1

[15] = biological target: GlcNAc(a1-4)Gal(b1-4)GlcNAc(b1-3)Gal(b1-4)[Fuc(a1-3)]GlcNAc(b1-3)Gal(b1-4)[Fuc(a1-3)]GlcNAc
Procedure, shortened: as §1

[16] = biological target: GlcNAc(a1-6)Gal(b1-4)GlcNAc
Procedure, shortened: as §1

[17] = biological target: GlcNAc(b1-2)Gal(b1-3)GalNAc
Procedure, shortened: as §1

[18] = biological target: GlcNAc(b1-2)Man(a1-3)[GlcNAc(b1-2)Man(a1-6)]Man(b1-4)GlcNAc(b1-4)GlcNAc
Procedure, shortened: as §1

[19] = biological target: GlcNAc(b1-2)Man(a1-3)[GlcNAc(b1-2)Man(a1-6)]Man(b1-4)GlcNAc(b1-4)[Fuc(a1-6)]GlcNAc
Procedure, shortened: as §1

[20] = biological target: GlcNAc(b1-2)Man(a1-3)[GlcNAc(b1-4)][GlcNAc(b1-2)Man(a1-6)]Man(b1-4)GlcNAc(b1-4)GlcNAc
Procedure, shortened: as §1

B1: Strep tagII-anxA1 (Homo sapiens), P04083 (protein)
chain: MAMVSEFLKQAWFIENEEQEYVQTVKSSKGGPGSAVSPYPTFNPSSDVAALHKAIMVKGVDEATIIDILTKRNNAQRQQIKAAYLQETGKPLDETLKKALTGHLEEVVLALLKTPAQFDADELRAAMKGLGTDEDTLIEILASRTNKEIRDINRVYREELKRDLAKDITSDTSGDFRNALLSLAKGDRSEDFGVNEDLADSDARALYEAGERRKGTDVNVFNTILTTRSYPQLRRVFQKYTKYSKHDMNKVLDLELKGDIEKCLTAIVKCATSKPAFFAEKLHQAMKGVGTRHKALIRIMVSRSEIDMNDIKAFYQKMYGISLCQAILDETKGDYEKILVALCGGN
**Q.** B1 was tested. Which “glycan array binding signal (z-score)” value [1] did it give?
**A.** -0.774

**Q.** And the “glycan array binding signal (z-score)” value (GalNAc(b1-3)Gal)?
**A.** -0.664

**Q.** And the “glycan array binding signal (z-score)” value [2]?
**A.** -0.061

**Q.** And the “glycan array binding signal (z-score)” value [3]?
**A.** 0.033

**Q.** What about the “glycan array binding signal (z-score)” value [4] of the same binder?
**A.** -0.75

**Q.** What about the “glycan array binding signal (z-score)” value (GalNAc(b1-3)GalNAc) of the same binder?
**A.** -0.066

**Q.** And the “glycan array binding signal (z-score)” value (GalNAc(b1-4)Gal(b1-4)Glc)?
**A.** 1.79

**Q.** What about the “glycan array binding signal (z-score)” value (GalNAc(b1-4)GlcNAc) of the same binder?
**A.** -0.147

**Q.** And the “glycan array binding signal (z-score)” value [5]?
**A.** -0.011

**Q.** And the “glycan array binding signal (z-score)” value (GalNAc(b1-4)GlcNAc6S)?
**A.** -0.695

**Q.** What about the “glycan array binding signal (z-score)” value (GalNAc(b1-6)GalNAc) of the same binder?
**A.** -0.568

**Q.** What about the “glycan array binding signal (z-score)” value (GalNAc3S(b1-4)GlcNAc) of the same binder?
**A.** -0.706

**Q.** And the “glycan array binding signal (z-score)” value (GalNAc3S(b1-4)GlcNAc3S)?
**A.** 0.323

**Q.** And the “glycan array binding signal (z-score)” value (GalNAc4S6S(b1-4)GlcNAc)?
**A.** -0.111

**Q.** And the “glycan array binding signal (z-score)” value (GalNAc6S(b1-4)GlcNAc)?
**A.** -0.672

**Q.** What about the “glycan array binding signal (z-score)” value (Glc(a1-4)Glc) of the same binder?
**A.** 0.47

**Q.** And the “glycan array binding signal (z-score)” value [6]?
**A.** 3.56

**Q.** And the “glycan array binding signal (z-score)” value (Glc(a1-6)Glc(a1-6)Glc)?
**A.** -0.383

**Q.** And the “glycan array binding signal (z-score)” value [7]?
**A.** 1.55

**Q.** And the “glycan array binding signal (z-score)” value (Glc(b1-4)Glc)?
**A.** 1.5

**Q.** And the “glycan array binding signal (z-score)” value (Glc(b1-6)Glc)?
**A.** 0.501

**Q.** What about the “glycan array binding signal (z-score)” value (GlcA(b1-3)Gal) of the same binder?
**A.** -0.038

**Q.** And the “glycan array binding signal (z-score)” value (GlcA(b1-3)GlcNAc)?
**A.** 0.735

**Q.** What about the “glycan array binding signal (z-score)” value (GlcA(b1-6)Gal) of the same binder?
**A.** -0.69

**Q.** What about the “glycan array binding signal (z-score)” value [8] of the same binder?
**A.** -0.688

**Q.** And the “glycan array binding signal (z-score)” value [9]?
**A.** -0.359

**Q.** What about the “glycan array binding signal (z-score)” value [10] of the same binder?
**A.** 2.68

**Q.** And the “glycan array binding signal (z-score)” value [11]?
**A.** 1.29

**Q.** And the “glycan array binding signal (z-score)” value [12]?
**A.** -0.026

**Q.** And the “glycan array binding signal (z-score)” value [13]?
**A.** 0.602

**Q.** What about the “glycan array binding signal (z-score)” value [14] of the same binder?
**A.** -0.656

**Q.** What about the “glycan array binding signal (z-score)” value [15] of the same binder?
**A.** 1.5

**Q.** What about the “glycan array binding signal (z-score)” value [16] of the same binder?
**A.** -0.562

**Q.** And the “glycan array binding signal (z-score)” value [17]?
**A.** -0.637

**Q.** And the “glycan array binding signal (z-score)” value [18]?
**A.** -0.492

**Q.** And the “glycan array binding signal (z-score)” value [19]?
**A.** -0.577

**Q.** And the “glycan array binding signal (z-score)” value [20]?
**A.** -0.727

— the supplement of paper PMC8728848
